# Measurements published in PubChem BioAssay AID1508642 (National Center for Advancing Translational Sciences (NCATS), 2021).
# Hit rate of the full screen: of about 43,000 compounds, about 200 (0.47%) were called active. Roughly 12% stayed inconclusive and do not appear here. Calls follow the shape of the dose curve; as a rule, active = well fitted cell-killing curve with a large enough effect; inconclusive = small, poorly fitted or top-dose-only effect, or effect the other way; inactive = flat fitted curve, though single readings scatter. This is one part of the list.
# Test: Cell viability qHTS assay in S16 Pmp22-F2sN cells; also: nearly all actives have a fitted effect of over 65% in size
# Conditions: S16 Pmp22-F2sN Schwann cells viability, CellTiter-Glo, 24 h; series mostly up to 57.5 µM; activity change, negative = cytotoxicity: at the top concentration
# In short: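 Viability was measured by CellTiter-Glo luminescence (15 min, room temperature). This followed 24 h at 37 °C of compound exposure (23 nL pin transfer) in S16 Pmp22-F2sN Schwann cells, 500-1,000 per well.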
# % is scaled to controls: 0 for no effect and ±100 for the full control effect.
row,SMILES,"activity change, negative = cytotoxicity"
1,Cc1cc(C)n(-c2nc3ccccc3nc2Nc2cc(C(=O)O)ccc2C)n1,inactive: 10%
2,Cc1ccc(CN2CCN(CC(=O)NCc3ccccc3Cl)C2=O)cc1,inactive: 2.95%
3,Cc1cc(C)cc(-n2nnc(-c3nc(-c4ccccc4F)no3)c2C)c1,inactive: -2.04%
4,COc1cc(NS(=O)(=O)c2ccc3c(c2)CCCN3C(C)=O)cc(OC)c1OC,inactive: -17.9%
5,COc1cccc(-c2cc(C(=O)Nc3ccc(C)cc3)[nH]n2)c1,inactive: 1.31%
6,COc1ccc(C(=O)N2CCc3cc(OC)c(OC)cc3C2COc2ccc3c(C)cc(=O)oc3c2)c(OC)c1 (centres undefined),inactive: -5.5%
7,CCOc1ccc(C(=O)N2CCCCC2CCN2CCOCC2)cc1 (centres undefined),inactive: 5.98%
8,COc1ccc(NC(=O)c2sc3nc(C)c(C(=O)Nc4ccc(Cl)cc4)c(-c4ccc(Br)cc4)c3c2N)cc1,inactive: -21.3%
9,Cc1ccc(NC(=O)C(=O)NCC(c2cccnc2)N2CCc3ccccc32)cc1Cl (centres undefined),inactive: -29.8%
10,CCOc1ccccc1NC(=O)CN1C(=O)C2(SCC(=O)N2c2cccc(F)c2)c2ccccc21 (centres undefined),inactive: -2.99%
11,Cc1c(Cl)cccc1NC(=O)CCn1nc(C)c2c(C)n(-c3ccccc3)nc2c1=O,inactive: 6.25%
12,COc1ccc(S(=O)(=O)N(CC(=O)NCc2ccc(C)cc2)c2ccc(Cl)cc2)cc1,inactive: 16.9%
13,COc1cc(C2c3c(oc4ccccc4c3=O)C(=O)N2c2nnc(C(C)C)s2)cc(OC)c1OC (centres undefined),inactive: 2.77%
14,CCOc1ccc(OCC)c(NC(=O)CCc2c(C)nc3c(c2C)c(=O)n(C)c(=O)n3C)c1,inactive: -3.16%
15,CCSc1ncc(Cl)c(C(=O)Nc2c(C(=O)Nc3ccc(Cl)cc3)oc3ccccc23)n1,inactive: 0.793%
16,O=C(c1ccc2c(c1)N(Cc1ccccc1)C(=O)c1ccccc1S2(=O)=O)N1CCN(c2ccccn2)CC1,inactive: -2.22%
17,Cc1ccc(Cn2ccn(Cc3ccccc3C)c(=O)c2=O)cc1,inactive: 0.932%
18,COC(=O)c1ccccc1NC(=O)Cn1c(=O)n(-c2ccc(Cl)cc2)c(=O)c2c(C)c(C)sc21,inactive: 11%
19,COc1ccc(CNC(=O)c2ccc3c(c2)nc2n3CCCCC2)c(OC)c1,inactive: 6.94%
20,CCOC(=O)c1cccc(NS(=O)(=O)c2cn(C)c(C)n2)c1,inactive: -3.83%
21,CCc1ccc(S(=O)(=O)c2nnn3c2nc(N2CCCC2)c2sccc23)cc1,inactive: -3.19%
22,COc1ccc(-n2cc(-c3ccccc3)nc2SCC(=O)Nc2ccccc2)cc1Cl,inactive: -2.51%
23,CCCn1c(NCc2ccccc2C)nc2ccccc21,inactive: 16.4%
24,COc1ccc(NC(=O)COCc2cc(-c3cccs3)on2)cc1,inactive: 1.04%
25,Cc1ccccc1C1C=C(c2ccc(Cl)cc2)Nc2nnnn21 (centres undefined),inactive: -2.34%

row,SMILES,"activity change, negative = cytotoxicity"
1,CN1C(=O)Cc2cc(S(=O)(=O)CCC(=O)N3CCN(c4ccccc4F)CC3)ccc21,inactive: -23.1%
2,COc1ccc(-c2cc(C(F)(F)F)n3nc(C(=O)Nc4cccc(Cl)c4C)cc3n2)cc1,inactive: 4.26%
3,CCOC(=O)c1ccc(NC(=O)Cn2cnc(S(=O)(=O)N3CCCC3)c2)cc1,inactive: -13.6%
4,CCOC(=O)c1ccc(NC(=O)CC2C(=O)N(c3ccc(F)cc3)C(=O)N2Cc2ccc3c(c2)OCO3)cc1 (centres undefined),inactive: -25%
5,CCOC(=O)c1cccc(NC(=O)C2CCN(S(=O)(=O)c3cn(C)cn3)CC2)c1,inactive: 0.401%
6,Cc1ccc(C)c(NS(=O)(=O)c2cc3c(cc2Cl)NC(=O)CO3)c1,inactive: -5.39%
7,Cc1ccc2oc3c(c(=O)c2c1)C(c1ccc(F)cc1)N(c1nc(C)c(C)s1)C3=O (centres undefined),inactive: 6.3%
8,COCCNC(=O)C(=O)NCC(c1cccnc1)N1CCN(c2ccccc2F)CC1 (centres undefined),inactive: -3.38%
9,COc1ccc(C2CC(=O)Nc3c2c(=O)[nH]c2nc4ccccc4n32)cc1OC (centres undefined),inactive: 1.37%
10,COc1ccccc1Nc1nc2ccc(Cl)cc2nc1-n1nc(C)cc1C,inactive: -0.302%
11,COc1ccc(NC(=O)c2nc3nc(C)cc(C(F)F)n3n2)c(C)c1,inactive: -13.9%
12,CCc1ccc(NC(=O)N2CC(C)Oc3ccc(C)cc32)cc1 (centres undefined),inactive: 0.258%
13,COCCCNc1ncnc2c1cnn2-c1ccc(F)cc1,inactive: -10.8%
14,O=C(c1ccccc1Cl)n1nc(-c2cccnc2)nc1NCc1ccc(F)cc1,inactive: 6.85%
15,COC(=O)c1scc(-c2ccccc2)c1S(=O)(=O)Nc1cccc(C)c1C,inactive: 18.4%
16,CCCCOc1ccc(C(=O)N(Cc2ccc(C(C)C)cc2)C2CCS(=O)(=O)C2)cc1 (centres undefined),inactive: 1.11%
17,Cc1c(CNC(C)CCc2ccccc2)c(C(=O)O)c(C)n1Cc1ccc(F)cc1Cl (centres undefined),inactive: 5.76%
18,O=C(Nc1ccccc1-c1nc2ccccc2s1)c1cc(Cl)cc(Cl)c1,inactive: 0.0383%
19,COc1ccc(C2=NN(CC(=O)NCCCN(C)c3ccccc3)C(=O)CC2)cc1,inactive: -0.217%
20,COC(=O)c1cc2sc(C)cc2n1Cc1ccc(Br)cc1F,inactive: 6.4%
21,COc1ccc(N2CCN(C3=NS(=O)(=O)C(c4cccc(Br)c4)=C3C)CC2)cc1,inactive: 20.7%
22,CCOC(=O)c1ccc(NC(=O)CCc2c(C)nc3nc[nH]n3c2=O)cc1,inactive: -0.266%
23,Cc1cc(C)c(NC(=O)CCc2c(C)nc3c(c(C)nn3C(C)(C)C)c2C)c(C)c1,inactive: -1.66%
24,CCOC(=O)Cn1c(=O)n(C2CCCCC2)c2nc(-c3ccc(Cl)cc3)nc(C(N)=O)c21,inactive: -8.91%
